Data taken from the supplement of paper PMC3334620.
Whole data set: some 33,000 sequences, median “E-score (-0.5 to 0.5)” near -0.021, cut for the highest 2% near 0.32. Some of the results follow.

Biological target: T1, Zap1 (UniProt P47043)
T1 sequence: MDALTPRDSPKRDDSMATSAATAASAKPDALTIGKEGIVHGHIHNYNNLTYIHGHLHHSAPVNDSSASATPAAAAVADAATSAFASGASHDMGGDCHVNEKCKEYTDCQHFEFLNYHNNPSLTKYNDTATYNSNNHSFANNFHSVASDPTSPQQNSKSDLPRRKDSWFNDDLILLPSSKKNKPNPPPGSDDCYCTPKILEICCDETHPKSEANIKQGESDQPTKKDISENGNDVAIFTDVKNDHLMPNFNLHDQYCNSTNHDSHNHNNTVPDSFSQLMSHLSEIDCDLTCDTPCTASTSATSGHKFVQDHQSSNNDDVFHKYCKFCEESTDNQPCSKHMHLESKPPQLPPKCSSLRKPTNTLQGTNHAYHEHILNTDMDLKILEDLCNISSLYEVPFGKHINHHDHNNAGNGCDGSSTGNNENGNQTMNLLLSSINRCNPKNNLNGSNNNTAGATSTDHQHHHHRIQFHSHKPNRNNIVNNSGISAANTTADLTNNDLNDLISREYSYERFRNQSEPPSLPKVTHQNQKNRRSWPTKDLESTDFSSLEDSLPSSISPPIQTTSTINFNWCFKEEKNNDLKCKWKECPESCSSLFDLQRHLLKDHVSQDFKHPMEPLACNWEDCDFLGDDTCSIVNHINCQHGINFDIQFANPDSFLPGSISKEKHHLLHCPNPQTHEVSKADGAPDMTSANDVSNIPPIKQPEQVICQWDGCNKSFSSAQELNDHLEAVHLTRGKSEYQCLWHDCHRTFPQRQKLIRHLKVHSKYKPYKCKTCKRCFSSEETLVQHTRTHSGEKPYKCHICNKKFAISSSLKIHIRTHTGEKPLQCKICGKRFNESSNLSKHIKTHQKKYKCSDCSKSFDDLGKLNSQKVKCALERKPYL
Test: PBM E-score (8-mer binding enrichment) (E-score (-0.5 to 0.5)); higher = stronger / more preferred TF binding; most listed sequences are background and not binding sites
Conditions: protein concentration: 200 nM; construct: GST-full length
Experimental: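 Universal 'all 10-mer' protein binding microarrays (Agilent AMADID 015681) probed with GST-tagged S. cerevisiae TFs (full-length or DBD) made by in vitro transcription/translation (PURExpress), about 100-200 nM. Bound TF was detected with fluorescent anti-GST. Each ungapped 8-mer (which stands for itself and its reverse complement) is scored by the PBM enrichment score (E-score), a modified Wilcoxon-Mann-Whitney statistic from -0.5 to +0.5, computed with the Universal PBM Analysis Suite. Scale: above 0.35 generally sequence-specific binding.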

| Sequence | PBM E-score |
| --- | --- |
| AGTCCCGC | -0.068 |
| ACGTTGGA | -0.00373 |
| CAATGACA | -0.0734 |
| CTACAGCA | -0.115 |
| GAGACCAA | 0.134 |
| AATTAAGA | -0.0073 |
| ACTAAAAA | 0.262 |
| GCCTTTTA | 0.0912 |
| GATCTTCA | -0.123 |
| CTCGAAAG | 0.035 |
| ACTCCCAA | -0.0223 |
| CTAGACAG | -0.122 |
| CGTTCTAG | -0.00266 |
| ACTAGTAC | 0.0159 |
| GAGACATA | 0.0225 |
| CGATCACA | 0.081 |
| GCTGTTGA | -0.0944 |
| CCCTAATA | 0.161 |
| GCATTCAA | 0.0999 |
| ACGATGAG | -0.0399 |
| GTGTGCAA | -0.0914 |
| CCACCCCA | -0.0125 |
| ATATTACG | 0.099 |
| CGGACGCA | -0.2 |
| CATAAGTA | -0.0817 |

| Sequence | PBM E-score |
| --- | --- |
| ACACACCT | 0.073 |
| CGACCGCG | 0.163 |
| CGCCTGAG | -0.0453 |
| GAAATAAA | 0.0984 |
| AATGGTAA | 0.314 |
| CAAACTGA | -0.0548 |
| ATGGGACA | 0.0433 |
| GCACGGCC | -0.0439 |
| ACATTAGC | -0.111 |
| ACTATGAT | -0.00467 |
| ACTTACTC | -0.185 |
| CATTAGAA | 0.0779 |
| CGCCCGTA | -0.335 |
| CGCCTCGC | -0.226 |
| ACCACGAG | 0.102 |
| AGCTTGTC | -0.00284 |
| AATGATCG | -0.145 |
| ATTTATAG | 0.0889 |
| ATCAAATC | 0.0253 |
| CAGGACAG | -0.0195 |
| CCGATTAC | -0.0754 |
| AATTGAGA | 0.109 |
| GAGGCCAA | -0.0454 |
| TACCACTA | 0.179 |
| AAGAAACA | 0.153 |

| Sequence | PBM E-score |
| --- | --- |
| GGGCACCC | 0.0588 |
| ACCAGTAT | 0.0851 |
| GTAGACCA | -0.0109 |
| AATATCGT | 0.0379 |
| TGCTAACA | -0.0987 |
| ATTGGATA | 0.117 |
| CGTTTCAA | 0.107 |
| ACCTGGCA | -0.0855 |
| ATCTTATG | -0.00019 |
| ACTGGGTA | 0.18 |
| AAATTTCA | 0.0746 |
| AGGGCAGG | -0.0942 |
| CGGGAGGA | -0.0827 |
| GATGGCGA | -0.0942 |
| AGAATACA | 0.0411 |
| AACGAGCG | -0.0754 |
| AAGTCGCG | 0.0253 |
| ATTCTGCG | -0.00266 |
| GATGCTCA | -0.071 |
| AATCTGGC | -0.121 |
| GGACAGTA | 0.0583 |
| CTGCTTTA | 0.195 |
| CACCTGAA | 0.138 |
| CACCTATC | -0.0885 |
| TCGGTTCA | 0.0449 |

| Sequence | PBM E-score |
| --- | --- |
| CTACCGGA | 0.0256 |
| TAAAATAA | 0.116 |
| CGGACTTC | -0.17 |
| GCTCGACC | -0.099 |
| ACAGTAAT | 0.0768 |
| CTGGTGCC | -0.169 |
| ATACCATA | 0.231 |
| CGTTGAGC | -0.241 |
| ACGCCCGT | -0.172 |
| TGGACGAA | 0.0932 |
| CATTAAGG | 0.175 |
| AGCTATGG | -0.00599 |
| CGACACCG | -0.0288 |
| AAATAACT | 0.279 |
| ATCTGTAC | -0.0911 |
| CATGAAAC | 0.0838 |
| ACGGCGAA | 0.001 |
| TACGTCCA | -0.00299 |
| GTCGACGA | -0.123 |
| CCCTGGTA | 0.185 |
| GAAAGGCA | -0.107 |
| CAACCTAA | 0.203 |
| GGAGTGGA | -0.414 |
| CTAGCGTC | -0.153 |
| ACTGTATA | 0.206 |

| Sequence | PBM E-score |
| --- | --- |
| ATGAACGG | -0.164 |
| AGTGATCG | -0.0957 |
| ACCTCAAC | 0.21 |
| CCATCAGA | -0.172 |
| CAAAGAAC | 0.231 |
| GTATAGAA | 0.121 |
| AGGATCAC | 0.0829 |
| CCCTCAAG | 0.135 |
| CTGACGTA | -0.242 |
| CTCGGTGA | -0.0979 |
| ATGATAGA | 0.0317 |
| GAGAGATA | -0.222 |
| CCTACAAG | -0.0213 |
| CGACTCTA | -0.195 |
| ACCAAACA | 0.275 |
| CCCTGACC | 0.275 |
| CACCACAG | 0.112 |
| ACAGCCCC | -0.0636 |
| AAGGCTTC | -0.29 |
| CTCCCGAC | -0.0105 |
| GCGCAGAC | 0.0155 |
| CCAGAAGA | -0.0769 |
| CCTTTCAA | 0.0123 |
| ACGCGATG | -0.0639 |
| CGGTTCAG | -0.152 |

| Sequence | PBM E-score |
| --- | --- |
| CAGAAATG | 0.0534 |
| GGGTGAGA | -0.0816 |
| ACCATTTC | 0.126 |
| CCCGTAAG | 0.259 |
| AACCCATC | 0.248 |
| ATGGACAT | 0.108 |
| GTAGTGTA | 0.0188 |
| CCTCTTTA | -0.0666 |
| ATTATTGG | 0.049 |
| CCTAGATC | -0.211 |
| GCTAAAGC | -0.287 |
| ACTCTGCA | 0.0815 |
| GCGAGCCA | -0.109 |
| CAGATCGG | -0.238 |
| CGTACAGC | -0.17 |
| ATCACCTG | 0.073 |
| GACCCAAA | 0.299 |
| TAAGTGAA | 0.0879 |
| CGCCACCC | 0.0637 |
| GGCAAGAC | -0.161 |
| GTTATTCA | 0.238 |
| ATGCACTA | -0.0376 |
| GCCCTCCC | -0.27 |
| AGCGATAT | 0.0755 |
| CAAAATAC | 0.175 |

| Sequence | PBM E-score |
| --- | --- |
| CCAATTGA | -0.032 |
| GATCGACC | 0.0168 |
| ACCCGACC | 0.233 |
| TAGGGCAA | 0.0414 |
| CAGTCATA | 0.00081 |
| CCGCTTGA | -0.0656 |
| AACAGGCG | -0.32 |
| GCGTGGCA | -0.238 |
| ATAATGTA | -0.00663 |
| CAGTGTTA | 0.116 |
| CAGCTATG | -0.151 |
| CATGGACA | 0.0186 |
| CATGTCCA | 0.0896 |
| GTCGCGCA | -0.0617 |
| CTACCCAA | 0.265 |
| CTACAAAG | 0.233 |
| AGTGACAG | 0.00986 |
| GATCAGAA | -0.106 |
| ATACCCCG | 0.175 |
| CATTCAGC | -0.131 |
| AAGGGCAA | -0.13 |
| GAAGGACA | -0.0101 |
| ACAGCGTA | -0.0395 |
| ACTCTACG | -0.188 |
| GGCCTGAA | -0.22 |

| Sequence | PBM E-score |
| --- | --- |
| ACTTGTCG | -0.0781 |
| CAATCAAC | 0.091 |
| GGAAACCA | 0.0255 |
| AAATGTAA | 0.106 |
| AGTTTCTC | -0.19 |
| AATTAGCT | 0.0533 |
| GCCCCCCC | -0.27 |
| CTGCGGAA | -0.109 |
| AGCGCGAA | 0.0923 |
| GATATTCA | -0.112 |
| TCCTTGAA | 0.158 |
| AGGGTTCG | 0.0919 |
| TATTGACA | -0.0592 |
| CCAGGTCC | 0.0708 |
| ACGGATAT | 0.187 |
| CTCTCACC | 0.0392 |
| CGACATCG | -0.203 |
| GTTATCTA | 0.171 |
| ACAGCCCT | -0.154 |
| AACACCGT | -0.0994 |
| GACCAGCA | -0.00619 |
| CCCTCTTA | 0.206 |
| AAGGCTTG | -0.209 |
| CAACGTAC | -0.00853 |
| CGATAGCG | -0.123 |

| Sequence | PBM E-score |
| --- | --- |
| ACTAAATA | 0.229 |
| CCAGCGGA | -0.21 |
| ACGCATGC | 0.0223 |
| GTCGCGGA | 0.089 |
| CTATAATA | 0.144 |
| AGGGGTAT | 0.258 |
| CAAGCATA | -0.0322 |
| CACATCCA | -0.0646 |
| GCATAGGC | -0.325 |
| AACATAGC | -0.116 |
| ACAACACT | 0.21 |
| CCAAATAC | 0.0363 |
| ACGCCGTA | -0.166 |
| GGATGTTA | 0.0507 |
| CTTGCAGA | -0.123 |
| CTCGGAAA | 0.0791 |
| ATACAGAA | 0.0186 |
| CATGGCGG | -0.129 |
| CCGTGGCG | -0.134 |
